# The whole screen tested about 350,000 compounds, of which about 260 (0.074%) were called active. Inconclusive results, whose numbers are uncertain, are shown with a selection of clear calls. The call rests on the fitted dose curve; in most records, active means well fitted inhibition curve with a large enough effect; inconclusive means small, poorly fitted or top-dose-only effect; inactive means no such curve, though single readings can be large or run the other way. Where the call is inconclusive, the potency comes from a doubtful curve fit.
# Biological target: Ferritin light chain (Equus caballus) (UniProt P02791)
# Test: qHTS Assay for Identification of Novel General Anesthetics; further: nearly all actives have a fitted effect of over 20% in size
# Settings: apoferritin/1-aminoanthracene competitive binding, fluorescence; series mostly up to 77.5 µM
# Method in brief: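 Probe: 1-aminoanthracene (50% saturated, PBS). Protein: horse-spleen apoferritin, 10 uM. Incubation: 10 min, room temperature. Detection: 380 nm excitation, 535 nm emission. Analysis: normalized response, four-parameter Hill.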
# Potency means the concentration at half of the fitted maximal effect; tags describe the fitted curve by direction and shape.
# Sequence of UniProt P02791 (P02791 whole entry, looked up): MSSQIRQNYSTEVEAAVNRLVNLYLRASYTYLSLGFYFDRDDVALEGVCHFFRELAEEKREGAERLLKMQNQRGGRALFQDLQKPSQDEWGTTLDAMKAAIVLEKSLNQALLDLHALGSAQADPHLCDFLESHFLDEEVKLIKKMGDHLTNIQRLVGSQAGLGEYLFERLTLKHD
row,SMILES,Potency
1,COc1ccc(S(=O)(=O)N(C(=O)c2ccco2)c2cc3sc(=O)oc3c3ccccc23)cc1,"inconclusive: 31.6 µM [inhibitor, single point]"
2,COc1cc(CN2CCNC(=O)C2CC(=O)NCCC2=CCCCC2)cc(OC)c1 (stereo unspecified),"inconclusive: 39.8 µM [inhibitor, single point]"
3,Cc1ccccc1CSc1nnc(-c2ccco2)n1Cc1ccco1,"inconclusive: 28.2 µM [inhibitor, partial curve]"
4,Cc1ccc(-c2cnc(NCc3ccc(C(C)C)cc3)n2C)cc1,"inconclusive: 17.8 µM [inhibitor, partial curve]"
5,O=C(Nc1cccc(-c2cccc(F)c2)c1)C1CCN(Cc2ccco2)CC1,inactive
6,CCOc1ccc2cc(-c3nnc(Nc4ccccc4F)s3)c(=O)oc2c1,inactive
7,CCOc1ccc(S(=O)(=O)c2cn(Cc3ccc(C)cc3)c3ccc(OC)cc3c2=O)cc1,inactive
8,CCOc1cc(/C=C2\SC(=Nc3ccc(F)cc3)N(c3ccc(F)cc3)C2=O)ccc1OCC(=O)O,"inconclusive: 22.4 µM [inhibitor, partial curve]"
9,CC(C)(C)c1ccc(-c2noc(-c3ccno3)n2)cc1,"inconclusive: 28.2 µM [inhibitor, partial curve]"
10,CCOC(=O)c1ccc(Nc2nc(C(=O)OCC)nc3ccccc23)cc1,"inconclusive: 39.8 µM [inhibitor, partial curve]"
11,Cc1ccc(C)c(CN2C(=O)c3ccccc3S(=O)(=O)c3ccc(C(=O)N4CCN(C)CC4)cc32)c1,"inconclusive: 25.1 µM [inhibitor, partial curve]"
12,COc1ccc(CNC(=O)Cc2coc3ccc(C(C)C)cc23)cc1,inactive
13,O=C(CSc1ccccc1)Nc1ccc2c(c1)OCCO2,"inconclusive: 28.2 µM [inhibitor, partial curve]"
14,COc1cccc(OC)c1C(=O)Nc1nc2ccc([N+](=O)[O-])cc2s1,"inconclusive: 14.1 µM [inhibitor, partial curve]"
15,CCCOc1ccccc1C1CC(=O)Nc2cc3c(cc21)OCCO3 (stereo unspecified),inactive
16,CCCn1c(O)c(/C=C2\C=NN=C2c2ccccc2)sc1=S,"inconclusive: 12.6 µM [inhibitor, partial curve]"
17,COc1ccc(CCN(C)C(=O)c2cc(-c3ccccc3)nc3ccccc23)cc1OC,"inconclusive: 35.5 µM [inhibitor, partial curve]"
18,COC(=O)[C@H](CC(C)C)NC(=O)N1CCN(c2cccc(C(F)(F)F)c2)CC1,"inconclusive: 35.5 µM [inhibitor, partial curve]"
19,Oc1ccccc1Oc1c(F)c(F)nc(N2CCCC2)c1F,"inconclusive: 50.1 µM [inhibitor, single point]"
20,COc1ccc(OC)c(-c2csc(NC(=O)Cc3ccccc3F)n2)c1,inactive
21,O=C(O)C1C2C=CC(C2)C1C(=O)NCc1cccc(Cl)c1 (stereo unspecified),"inconclusive: 15.8 µM [inhibitor, partial curve]"
22,Cc1cc(N(C)C)ccc1N=Nc1ccc2ncccc2c1,"inconclusive: 39.8 µM [inhibitor, single point]"
23,CCc1ccc(S(=O)(=O)c2cn(C)c3cc(OC)c(OC)cc3c2=O)cc1,"inconclusive: 39.8 µM [inhibitor, single point]"

row,SMILES,Potency
1,CCCCOc1ccc(Cc2c(COCC)[nH]c(=S)[nH]c2=O)cc1,"inconclusive: 44.7 µM [inhibitor, single point]"
2,O=S(=O)(c1ccc(Cl)c(Cl)c1)c1snnc1-c1ccccc1,"inconclusive: 44.7 µM [inhibitor, single point]"
3,CCc1ccc2oc(C(=O)NCCc3ccc(OC)c(OC)c3)cc(=O)c2c1,"inconclusive: 35.5 µM [inhibitor, single point]"
4,CCN(CCNCC(O)COc1ccccc1C(C)C)c1cccc(C)c1 (stereo unspecified),inactive
5,COc1cccc(CN2C(=O)C3(SCC(=O)N3c3cc(C)cc(C)c3)c3ccccc32)c1 (stereo unspecified),inactive
6,Cc1ccc(NS(=O)(=O)N2CCOCC2)c(C)c1,"inconclusive: 11.2 µM [inhibitor, partial curve]"
7,CCN(CCn1cccn1)C(=O)CC1C(=O)NCCN1Cc1ccc(F)cc1 (stereo unspecified),"inconclusive: 12.6 µM [inhibitor, partial curve]"
8,Nc1nonc1C(=O)NCCNc1ncccc1[N+](=O)[O-],inactive
9,CCN(CC)C(=O)c1cccc(C)c1,"inconclusive: 15.8 µM [inhibitor, partial curve]"
10,CC(C)c1ccc(NC(=S)NCc2cccs2)cc1,"inconclusive: 28.2 µM [inhibitor, partial curve]"
11,O/N=C(/CCc1ccccc1)C1(O)CCCCC1,"inconclusive: 39.8 µM [inhibitor, partial curve]"
12,COC(=O)c1ccccc1NC(=O)CSc1nnc(CNS(=O)(=O)c2ccc(C)cc2)n1C,"inconclusive: 10 µM [inhibitor, partial curve]"
13,O=S(=O)(NCc1ccccc1Cl)c1cccs1,"inconclusive: 28.2 µM [inhibitor, partial curve]"
14,CC(=O)c1cccc(NCC(=O)Nc2cc(S(=O)(=O)N3CCCCC3)ccc2C)c1,"inconclusive: 14.1 µM [inhibitor, partial curve]"
15,CCC(C)(C)C(=O)Nc1ccc(OC)cc1[N+](=O)[O-],"inconclusive: 31.6 µM [inhibitor, partial curve]"
16,Clc1ccc(CN2CCCCCC2)cc1,inactive
17,Fc1ccc(N2CCN(Cc3cnc(Cl)s3)CC2)cc1,inactive
18,Nc1c(Cl)ncnc1NCc1ccccc1,inactive
19,O=C(Nc1ccc(-c2nc3ccccc3s2)cc1)C1=COCCO1,inactive
20,COc1ccccc1C(=O)c1nc2ccccc2n1C,"inconclusive: 28.2 µM [inhibitor, partial curve]"
21,COc1ccc(OCc2cc(C(=O)NC3CCc4ccccc43)no2)c(Cl)c1 (stereo unspecified),"inconclusive: 4.47 µM [inhibitor, full curve]"
22,CCOc1cc2c(C#N)c(N3CCOCC3)nc(N)c2c(N)n1,inactive
23,O=[N+]([O-])c1ccc(C2CCCC/C2=N/OCc2ccccc2F)c([N+](=O)[O-])c1 (stereo unspecified),"inconclusive: 35.5 µM [inhibitor, partial curve]"
